Self-cleavage data for 167 variants are collected here from the RNAGym collection of RNA variant scans (doi:10.7554/elife.90254).

Read counts are not given, so values of variants with three or more changes are uncertain.

B1: LINE1-mini (parent)
chain: GGCAGAGCUCAACACAGCGUGGCAAAGUGGCUGUGGCUAGACUGCC

The variants in the data set derive from B1. Briefly: self-cleavage, relative activity (ratio to wild type); higher = more cleavage; in vitro, sequencing; the parent is a self-cleaving ribozyme.
Take G17A A26G G30C: the self-cleavage stood at 0.02. The figure for G17A G29C G30U C46G is 0.08; for G17A G22U A26C G33C G40C U43G it is 0. The figure for G17A G19C U32A is 0.14; for A16U U20C C46U it is 0.06. As to G17A C23U G36C C45G, the self-cleavage worked out at 0.01.

As for G17A U20G A25U G29A C31G, the self-cleavage worked out at 0.11. With G17A G36A C42G, the self-cleavage came to 0. Turning to G17A U20G G22C C42A, the self-cleavage is 0.04. Consider G17A G19A G33A U38A, for which the self-cleavage is 0.01.

Regarding G17A A24G U28A, the self-cleavage came to 0.01.

Turning to G17A G27A G44A, the self-cleavage was determined as 0.47.

Regarding A16U U20C U34G A41U U43C, the self-cleavage came out at 0.09. The figure for G17A A25G U28A is 0.1; for G17A G29U C31A it is 0.21. The figure for G17A G21U C42A is 0.03. The figure for G17A C18U U20A G35U C46U is 0.06; for G17A G22U G27C it is 1.17; for G17A A24C U32G it is 0.02.

Turning to G17A G21A A26U, the self-cleavage stood at 0.26.

As for G17A C37U U38A C42U U43G, the self-cleavage is 0.12.

With G17A A26U G33C C45U, the self-cleavage stood at 0.07. As to A16U U34A U43A, the self-cleavage amounted to 0.01. The figure for G17A G27U G29U U43A is 0.12; for G17A A24C G36C C37A it is 0.02. As to G17A C23G U34A, the self-cleavage came to 0.02.

Take G17A G33A G36U: the self-cleavage stood at 0.02. The figure for G17A G22U C42U is 0.09; for G17A C18A U28A G36C A39U it is 0; for G17A C18A G22U it is 0.14.

Take G17A U28A G33C: the self-cleavage amounted to 0.09. As to G17A A25C G30C A39G, the self-cleavage amounted to 0.01. In the case of G17A A25U U43A C46U, the self-cleavage came to 0.02. In the case of G17A A26C U34A G35U U43A C46A it was 0; in that of G17A A24C A25C G36C, 0.05.

On to G17A C37U U43C G44U, for which the self-cleavage was 0.

On to G17A G19C U20A C23U C37G C46A, for which the self-cleavage came out at 0.01.

Consider G17A C23A A26G, for which the self-cleavage was 0.08. The figure for G17A C37U C46A is 0.12; for G17A C37U G40A it is 0.04; for G17A A39G A41C it is 0. As for G17A G19C U34C G40U C42U G44A C45A, the self-cleavage is 0.02. In the case of G17A U20C G21A G33U it was 0.04; in that of G17A U20G C42U, 0.01. The figure for G17A G22U C23G is 0.29; for G17A G30U U34C U38A it is 0.04; for G17A C18A U20A U28C it is 0.02. In the case of G17A G22C U28G G30A C31U C46U it was 0.09. Regarding G17A U20C C46G, the self-cleavage was determined as 0.02. For G17A A25U C37A, the self-cleavage stood at 0.11. In the case of G17A C18G A39U, the self-cleavage was 0.02. Consider G17A G19U G33U G40U, for which the self-cleavage worked out at 0. The figure for G17A C23G G36A U38C C42G C45U is 0.14; for G17A G29C G30U it is 0.05. G17A U38G C46U: the self-cleavage came out at 0.01. The figure for G17A C31G U43C is 0.02; for A16U U32G C42U G44U it is 0.05.

As for G17A G30U G36U C42A, the self-cleavage stood at 0.05. G17A G19C G44A: the self-cleavage came out at 0.18. In the case of G17A G19A G27A U34C, the self-cleavage turned out to be 0.03. Take G17A C23A G27A A41C: the self-cleavage was 0.02.

In the case of G17A G33U U43G C45A, the self-cleavage came to 0.01. Turning to G17A G33C U34G C42G, the self-cleavage was 0.02. The figure for G17A C23A C46G is 0.02; for G17A A26U G35C U38C it is 0.01. Turning to G17A C18U A41G, the self-cleavage worked out at 0.04. In the case of G17A C23A G27C it was 0.54; in that of G17A A24C U32C C45A, 0.03. Regarding G17A C23A C45U, the self-cleavage amounted to 0.15. In the case of G17A C23A C45A it was 0.13; in that of G17A C18G C31U, 0.13. The figure for G17A A26C U28C G30A C42U is 0.24; for G17A G19C A24C G44A it is 0.08.

On to G17A A26U G40U C42A, for which the self-cleavage worked out at 0.11. Regarding G17A C31A G36A, the self-cleavage worked out at 0.03.

With G17A G21U C46G, the self-cleavage came out at 0.16.

A16U U20A A25U C42A: the self-cleavage was 0.13. In the case of G17A U20A G36A it was 0.08. For the variant G17A G22U A26G, the self-cleavage stood at 0.04. On to G17A G33U U34C G35C C37A, for which the self-cleavage was 0.02.

As to G17A U20A G27A, the self-cleavage worked out at 0.49. In the case of G17A G22A G29A C37U A41G it was 0.01; in that of G17A C37G C42U, 0.01; in that of G17A G29U G36A U43G G44U C45A, 0.02.

Turning to A16U U20A C23U, the self-cleavage was determined as 0.07. In the case of G17A C18U U38C G40A G44A it was 0.03. In the case of G17A A24U C42A it was 0.04. In the case of G17A A26G G30U C37U it was 0.1. G17A G21A G40C: the self-cleavage came out at 0.02. In the case of G17A G29C G30U C37U C42U C45A it was 0; in that of G17A C31A C42A C46U, 0.01.

Take G17A U20G G22U G40U: the self-cleavage is 0.03. In the case of G17A G21A G22A C23U A41C it was 0; in that of G17A A24C G33C G44A, 0.01; in that of G17A G33C G44U, 0.03. In the case of G17A C18U C46G it was 0.04; in that of G17A G19A C42A, 0.03; in that of G17A G21C A24U C31U, 0.26.

As to G17A G21A U28A C37G U38A, the self-cleavage stood at 0.01.

As to G17A C23G G30C, the self-cleavage amounted to 0.06. In the case of G17A G29C C42U it was 0.01; in that of G17A G22A C23U, 0.41; in that of A16U U28C C31U, 0.03.

As for G17A G21U C37U, the self-cleavage came out at 0.05.

Take G17A C18U C37A C42A: the self-cleavage was found to be 0.06. G17A A24G G36C: the self-cleavage turned out to be 0.05. Turning to G17A G29A G33C, the self-cleavage worked out at 0.03.

Regarding G17A C23U G33A A41G, the self-cleavage came to 0.12. The figure for G17A C18U U28G G33U G36U is 0.02; for G17A G21A C46G it is 0.1. As for G17A G27U G33U, the self-cleavage was 0.02. On to G17A G21A G30U G33U G40A, for which the self-cleavage stood at 0.06. Turning to G17A A25C C37U C46A, the self-cleavage is 0.05.

For G17A G29U U34G, the self-cleavage came out at 0.03. The figure for G17A U20G C23G is 0.01. For the variant G17A G29A C46G, the self-cleavage came out at 0.07.

Take G17A A26C G35U G36A G40A A41G: the self-cleavage came out at 0.06. The figure for G17A G27C C42A is 0.01; for G17A C18G G21A G30C C31U it is 0.8; for G17A G21C C42G it is 0.06. In the case of G17A C31G C46A it was 0.02; in that of A16U U20A G36U, 0.02.

For G17A A24G G35C G44U, the self-cleavage came to 0.08. In the case of A16U U34G G36C G44C it was 0; in that of G17A G27A G35U, 0.09.

G17A U28G G29A U34C G40C: the self-cleavage was determined as 0.05. The figure for G17A A26G G27U is 0.06; for G17A G22U G33C A39C it is 0.01; for G17A U20C G33U G44C it is 0.03. The figure for G17A G33A A41C is 0.03; for G17A G21A G27A G29C U43C it is 0.08. For the variant A16U U20G A25G A26C G36U, the self-cleavage was determined as 0.02. Regarding G17A C23A G30C U34G A41C G44C, the self-cleavage amounted to 0.02. The figure for G17A G21A U38C C45U is 0. G17A U20A A25G U28G C31A: the self-cleavage was 0.01.

As to G17A A25C C45A, the self-cleavage turned out to be 0.09. For the variant A16U U20A C31A, the self-cleavage came to 0.05. G17A G29U A41G: the self-cleavage was determined as 0.06.

On to G17A A24U G35U, for which the self-cleavage stood at 0.05. In the case of G17A U28G U32C it was 0.2; in that of G17A C18A U20C C23A U32G U34C C37A C46U, 0.03; in that of G17A A24G G33C, 0.02. G17A G19A C46G: the self-cleavage was 0.3. Consider G17A A25U C37A C46A, for which the self-cleavage stood at 0.02. The figure for G17A U32G U43A is 0.01; for G17A G27C C42U C46U it is 0.04.

Consider G17A U20G C46U, for which the self-cleavage turned out to be 0.04. On to G17A G19C U20A A25G G36C, for which the self-cleavage amounted to 0.04. The figure for G17A C23U C42G is 0.01; for G17A G19C C45A it is 0.24; for G17A C37G A39U it is 0.01. In the case of G17A G30A C37U it was 0.13; in that of G17A C18A C23U, 0.22; in that of G17A G21C A24U C37G, 0.08. Turning to G17A C23G C42A, the self-cleavage was found to be 0.02. In the case of G17A G40A G44U it was 0.02.

As for G17A C23A C31U G36C, the self-cleavage came out at 0.04. In the case of G17A A26U G27U U28G A39C it was 0.01; in that of G17A C23G A24C, 0.08; in that of A16U U20C C23G, 0.17. The figure for A16U G40U G44A is 0.03.

As for A16U U28G A39C G44C, the self-cleavage worked out at 0.03. In the case of A16U U20A C46U it was 0.07; in that of G17A G33C G35C, 0.01. In the case of A16U U20G C37U A39C it was 0.01. In the case of G17A C23G C45A it was 0.03; in that of G17A G19U U34G U43C, 0.04.
